Source: patent EP4692072A1, “PHOTOCHROMIC COMPOUND, PROPARGYL ALCOHOL COMPOUND, CURABLE COMPOSITION, OPTICAL ARTICLE, LENS, AND SPECTACLES” (TOKUYAMA CORPORATION, priority 2023, dated 2024)
At least one read-out could not be matched to a standard name with certainty.

Assay: Photochromic properties of binder sheet (photochromic layer prepared by binder method)
Format: physicochemical
Conditions: 0.25 mmol per 100 parts by mass resin, after 300 seconds irradiation at 23°C
Protocol: • [1] Maximum Absorption Wavelength (λmax): The maximum absorption wavelength after color development, measured using a spectrophotometer (instantaneous multichannel photodetector MCPD3000) manufactured by Otsuka Electronics Co., Ltd. was used as an indicator for the color tone during the color development. • [2] 23°C Color Optical Density (A23): A difference between an absorbancy measured after light irradiation at 23°C for 300 seconds {ε(300)} and an absorbancy without light irradiation ε(0) at the maximum absorption wavelength was used as an indicator for the color optical density. […] 23°C color fading half-life [τ1/2 (sec.)]: A time required for the absorbancy of the sample at the maximum absorption wavelength to decrease to 1/2 of {ε(300)-ε(0)} when the light irradiation was terminated after the light irradiation at 23°C for 300 seconds, was used as an indicator for the color fading speed. The shorter this time, the higher the color fading speed. • [4] Residual rate (A120/A0×100): The obtained photochromic plastic lens was subjected to accelerated deterioration using a xenon weather meter X25 manufactured by Suga Test Instruments Co., Ltd. for 120 hours. Subsequently, the color optical density was evaluated before and after the test, then a color optical density before the test (A0) and a color optical density after the test (A120) were measured, and a ratio (A120/A0) was defined as a residual rate. The residual rate was used as an indicator for a color developing durability. The higher the residual rate, the higher the color developing durability. The results of Examples 26, 50, and Comparative Examples 1 to 8 are summarized in Table 1, and the results of Examples 27 to 49 are summarized in Tables 2 and 3.
A binder sheet was prepared using the following method. The binder sheet consisted of a first optical sheet, a first adhesive layer, a photochromic layer, a second adhesive layer, and a second optical sheet, which are laminated in this order. The first optical sheet and the second optical sheet were made of a polycarbonate sheet with a thickness of 400 µm.
A 2L four-necked flask equipped with agitation blades, a cooling tube, a thermometer, and a nitrogen gas introducing tube was charged with 315 parts by mass of polycarbonate diol having a number-average molecular weight of 1000, 100 parts by mass of isophorone diisocyanate, and 72 parts by mass of toluene, and the mixture was reacted under nitrogen atmosphere at 100°C for 7 hours to synthesize a urethane prepolymer having an isocyanate group on its terminal. After completion of the urethane prepolymer reaction, the reaction liquid was cooled to approximately 0°C, then dissolved in 205 parts by mass of t-butyl alcohol and 382 parts by mass of diethyl ketone, and then the liquid temperature was maintained at 0°C. Subsequently, into this reaction liquid, a mixture of 21.3 parts by mass of bis-(4-aminocyclohexyl)methane as a chain extender and 20 parts by mass of diethyl ketone was dripped over within 30 minutes, and the mixture was reacted at 0°C for 1 hour. Then, into the mixture, 8.1 parts by mass of 1,2,2,6,6-pentamethyl-4-aminopiperidine was dripped, and the mixture was reacted at 0°C for 1 hour to obtain a diethyl ketone solution of a terminal non-reactive urethaneurea resin.
To 100 parts by mass of the obtained terminal non-reactive urethaneurea resin solution, the photochromic compound in Example 1 (represented by formula (28) above), 6.3 parts by mass of 4,4'-methylenebis(cyclohexyl isocyanate) isomer mixture (polyisocyanate compound), furthermore 0.4 part by mass of ethylene bis(oxyethylene)bis[3-(5-tert-butyl-4-hydroxy-m-tolyl)propionate] as an antioxidant, and 0.06 part by mass of DOW CORNING TORAY L-7001 as a surfactant were added, and the mixture was stirred and mixed at room temperature to obtain a photochromic layer forming composition. […]

Compound: CCCC1(CCC)c2ccccc2-c2c1c1c(c3cc(OC)c(-c4ccc(OC)cc4OC)cc23)OC(c2ccc(C)cc2)(c2ccc(N(C)c3ccccc3)cc2)C=C1 (centres unmarked) [Example 19]
- 23°C color fading half-life: 1.67 min
- 23°C color fading half-life (listed as Formula (80)): 1.65 min
